In the supplement of paper PMC3334620:
In all, about 33,000 sequences were measured (“E-score (-0.5 to 0.5)”: median about -0.032, highest 2% from about 0.36 on). The list shows a part of the results.

The sequences below were run against T1, Sko1 (UniProt Q02100) (assay: PBM E-score (8-mer binding enrichment) (E-score (-0.5 to 0.5)); higher = stronger / more preferred TF binding; most listed sequences are background and not binding sites). Conditions: protein concentration: 200 nM; construct: GST-full length.
T1 sequence: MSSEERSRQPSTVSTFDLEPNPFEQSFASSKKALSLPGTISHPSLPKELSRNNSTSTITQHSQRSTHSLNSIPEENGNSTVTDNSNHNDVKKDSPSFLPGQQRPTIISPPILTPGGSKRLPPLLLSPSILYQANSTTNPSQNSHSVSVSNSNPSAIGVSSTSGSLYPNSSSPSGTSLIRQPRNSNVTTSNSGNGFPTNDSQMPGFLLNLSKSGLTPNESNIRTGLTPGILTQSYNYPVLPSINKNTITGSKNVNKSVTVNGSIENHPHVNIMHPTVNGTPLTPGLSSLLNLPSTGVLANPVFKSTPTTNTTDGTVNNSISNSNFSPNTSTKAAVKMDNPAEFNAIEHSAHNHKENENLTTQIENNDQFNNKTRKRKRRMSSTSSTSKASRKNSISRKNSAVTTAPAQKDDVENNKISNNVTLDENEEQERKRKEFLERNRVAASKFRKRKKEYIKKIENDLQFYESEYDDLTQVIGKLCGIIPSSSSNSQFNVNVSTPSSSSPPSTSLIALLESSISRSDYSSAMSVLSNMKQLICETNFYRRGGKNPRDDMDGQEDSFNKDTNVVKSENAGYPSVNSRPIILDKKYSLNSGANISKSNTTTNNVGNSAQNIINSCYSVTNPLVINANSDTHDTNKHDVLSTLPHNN
How it was run: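 Full-length yeast transcription factors or their DNA-binding domains, GST-tagged and expressed with PURExpress, were applied at about 100-200 nM to universal all-10-mer Agilent arrays. These arrays had been made double-stranded by primer extension on fresh or once-stripped slides. Detection used fluorescent anti-GST, normalisation used masliner, and E-scores for ungapped eight-base words pooled with reverse complements came from the Universal PBM Analysis Suite.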

Sequence | PBM E-score
ACCTCAGC | -0.0683
AGGGCATG | -0.28
AGCCTACA | -0.0669
ACCGTGAA | 0.03
CACTCGCC | -0.148
GGGCCTGA | -0.149
CCGGTACA | -0.101
CAACAGCC | -0.00729
CACGAAGA | 0.131
ATGTCATC | 0.389
ACAGGTGC | -0.221
ACGGGCGA | -0.15
ACGTAGTA | 0.446
AGTGCCAG | -0.271
ACTGATGG | -0.155
AGAGGGGA | -0.324
GTCTCACA | 0.0584
AACCGGCG | -0.0375
GATTGGAA | -0.0393
AAGTCATA | 0.184
GATACTAA | 0.0567
ACGCAAGA | 0.336

Sequence | PBM E-score
GCAACCGC | -0.139
ATGGAAAG | 0.179
ACAGGTTG | -0.221
CCGTTTCA | -0.085
CAGTGTCA | 0.0363
CCACGCTA | -0.137
CTCTACGA | 0.0535
AGCCTCCG | -0.313
TACATAGA | 0.12
CAGCGACA | -0.114
CGCGGAAA | -0.198
GAAACACA | 0.112
GACCCATC | -0.17
CATTTCGG | -0.134
CTGCTGCA | -0.179
CGCAGAAC | 0.156
AGTTTGAC | 0.222
ATCAAGAC | 0.164
ACGGATAA | 0.0434
CCACTTCC | -0.0898
AGTCCTGG | -0.274
CGCATCTC | 0.00531

Sequence | PBM E-score
AGCACTCG | -0.347
AACTTTGA | 0.0725
AGGAAAGA | -0.25
ACCCGTCG | -0.238
CAAAGATG | -0.0163
TCCTCGCA | -0.147
CCATCCTC | -0.282
CGAGGGCG | -0.189
ACACAGAC | 0.109
AGGTTAAA | -0.104
ATATATGG | 0.155
ACCATATC | -0.0649
CAGCTTGA | -0.0522
AGTCTAAG | 0.104
ATTCTCAA | 0.133
AGTACATA | 0.00479
GCAGTTCC | -0.0881
ACTCAGTG | -0.263
CCTCGTCA | 0.381
CTAGTTGA | 0.0808
CCCTGTAA | -0.156
AAAAAGCT | -0.00337

Sequence | PBM E-score
CTCACTAC | 0.0377
AATTAGAG | 0.198
TATGCAAA | 0.167
GGCCGACC | -0.311
AACGGGCA | -0.265
AGAATATA | 0.206
AATGCATC | 0.0626
AAATGCTA | 0.0492
ACGATTCA | 0.12
AGGGTAAT | -0.00961
CGCTCCCC | -0.233
TCCTCAAA | -0.0281
AGGGACGA | 0.105
CAAGTAGA | -0.167
CCGGCAAC | -0.23
TGCATTAA | 0.144
TCTTACCA | -0.0743
CTAGGAAA | -0.103
GAGCTATC | -0.0596
CCTTATGC | -0.0417
